According to patent US8409577:

T1: CD20 (human) (UniProt P11836)
T1 sequence (looked up): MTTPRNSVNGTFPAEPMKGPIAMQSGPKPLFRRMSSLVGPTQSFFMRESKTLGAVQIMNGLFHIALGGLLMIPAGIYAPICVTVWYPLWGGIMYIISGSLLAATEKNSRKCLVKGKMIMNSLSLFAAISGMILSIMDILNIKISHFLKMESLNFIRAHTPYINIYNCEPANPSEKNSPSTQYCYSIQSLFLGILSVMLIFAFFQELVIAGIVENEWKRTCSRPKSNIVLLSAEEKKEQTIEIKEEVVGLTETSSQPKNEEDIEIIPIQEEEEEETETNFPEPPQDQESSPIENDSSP


Columns and labels:
[1] = target: T1, CD20 (human); test: flow cytometry, staining of WIL2S cells (CD20); protein made in 200 uM castanospermine
[2] = target: T1, CD20 (human); test: flow cytometry, staining of WIL2S cells (CD20); protein made in 10 uM kifunensine
[3] = target: T1, CD20 (human); test: flow cytometry, Ramos cells loaded at 25 µg/ml, washed, kept at 37° C. or on ice

Binder | persistence of binding on the cell surface [3] | other results
S0129 CS200 (protein, from a related filing) EIVLTQSPATLSLSPGERATLSCRASSSVSYIVWYQQKPGQAPRLLIYAPSNLASGIPARFSGSGSGTDFTLTISSLEPEDFAVYYCQQWSFNPPTFGQGTKVEIKDGGGSGGGGSGGGGSSQVQLVQSGAESKKPGASVKVSCKASGYTFTSYNMHWVRQAPGQGLEWMGAIYPGNGDTSYNQKFKGRVTMTRDTSTSTVYMELSSLRSEDTAVYYCARSYYSNSYWYFDLWGRGTLVTVSSS[in this place human IgG1 Fc with changes]GCPPCPNSQVQLVQSGAESKKPGASVKVSCKASGYTFTSYNMHWVRQAPGQGLEWMGAIYPGNGDTSYNQKFKGRVTMTRDTSTSTVYMELSSLRSEDTAVYYCARSYYSNSYWYFDLWGRGTLVTVSSGGGGSGGGGSGGGGSASEIVLTQSPATLSLSPGERATLSCRASSSVSYIVWYQQKPGQAPRLLIYAPSNLASGIPARFSGSGSGTDFTLTISSLEPEDFAVYYCQQWSFNPPTFGQGTKVEIKD | – | EC50 (read off the curve) [1]: 10 nM
S0129 KF 10 (protein, from a related filing) EIVLTQSPATLSLSPGERATLSCRASSSVSYIVWYQQKPGQAPRLLIYAPSNLASGIPARFSGSGSGTDFTLTISSLEPEDFAVYYCQQWSFNPPTFGQGTKVEIKDGGGSGGGGSGGGGSSQVQLVQSGAESKKPGASVKVSCKASGYTFTSYNMHWVRQAPGQGLEWMGAIYPGNGDTSYNQKFKGRVTMTRDTSTSTVYMELSSLRSEDTAVYYCARSYYSNSYWYFDLWGRGTLVTVSSS[in this place human IgG1 Fc with changes]GCPPCPNSQVQLVQSGAESKKPGASVKVSCKASGYTFTSYNMHWVRQAPGQGLEWMGAIYPGNGDTSYNQKFKGRVTMTRDTSTSTVYMELSSLRSEDTAVYYCARSYYSNSYWYFDLWGRGTLVTVSSGGGGSGGGGSGGGGSASEIVLTQSPATLSLSPGERATLSCRASSSVSYIVWYQQKPGQAPRLLIYAPSNLASGIPARFSGSGSGTDFTLTISSLEPEDFAVYYCQQWSFNPPTFGQGTKVEIKD | – | EC50 (read off the curve) [2]: 10 nM
2Lm20-4 SMIP (Fc fusion, from a related filing) EIVLTQSPATLSLSPGERATLSCRASSSVSYIVWYQQKPGQAPRLLIYAPSNLASGIPARFSGSGSGTDFTLTISSLEPEDFAVYYCQQWSFNPPTFGQGTKVEIKDGGGSGGGGSGGGGSSQVQLVQSGAESKKPGASVKVSCKASGYTFTSYNMHWVRQAPGQGLEWMGAIYPGNGDTSYNQKFKGRVTMTRDTSTSTVYMELSSLRSEDTAVYYCARSYYSNSYWYFDLWGRGTLVTVSSS[in this place human IgG1 Fc with changes] | > 6 h | –
humanized CD20×CD20 (2Lm20-4×2Lm20-4) scorpion (protein, from a related filing) EIVLTQSPATLSLSPGERATLSCRASSSVSYIVWYQQKPGQAPRLLIYAPSNLASGIPARFSGSGSGTDFTLTISSLEPEDFAVYYCQQWSFNPPTFGQGTKVEIKDGGGSGGGGSGGGGSSQVQLVQSGAESKKPGASVKVSCKASGYTFTSYNMHWVRQAPGQGLEWMGAIYPGNGDTSYNQKFKGRVTMTRDTSTSTVYMELSSLRSEDTAVYYCARSYYSNSYWYFDLWGRGTLVTVSSS[in this place human IgG1 Fc with changes]GCPPCPNSQVQLVQSGAESKKPGASVKVSCKASGYTFTSYNMHWVRQAPGQGLEWMGAIYPGNGDTSYNQKFKGRVTMTRDTSTSTVYMELSSLRSEDTAVYYCARSYYSNSYWYFDLWGRGTLVTVSSGGGGSGGGGSGGGGSASEIVLTQSPATLSLSPGERATLSCRASSSVSYIVWYQQKPGQAPRLLIYAPSNLASGIPARFSGSGSGTDFTLTISSLEPEDFAVYYCQQWSFNPPTFGQGTKVEIKD | > 6 h | –
